# The whole screen tested about 410,000 compounds, of which about 6,400 (1.6%) were called active. Inconclusive results, whose numbers are uncertain, are shown with a selection of clear calls. Calls come from the whole dose curve; as a rule, active = well fitted inhibition curve with a large enough effect; inconclusive = small, poorly fitted or top-dose-only effect; inactive = no such curve, though single readings can be large or run the other way. No potency is given beside an inconclusive call; the fits are too rough.
# Biological target: Glucagon-like peptide 1 receptor (Homo sapiens) (UniProt P43220)
# Sequence of UniProt P43220 (P43220 whole entry, looked up): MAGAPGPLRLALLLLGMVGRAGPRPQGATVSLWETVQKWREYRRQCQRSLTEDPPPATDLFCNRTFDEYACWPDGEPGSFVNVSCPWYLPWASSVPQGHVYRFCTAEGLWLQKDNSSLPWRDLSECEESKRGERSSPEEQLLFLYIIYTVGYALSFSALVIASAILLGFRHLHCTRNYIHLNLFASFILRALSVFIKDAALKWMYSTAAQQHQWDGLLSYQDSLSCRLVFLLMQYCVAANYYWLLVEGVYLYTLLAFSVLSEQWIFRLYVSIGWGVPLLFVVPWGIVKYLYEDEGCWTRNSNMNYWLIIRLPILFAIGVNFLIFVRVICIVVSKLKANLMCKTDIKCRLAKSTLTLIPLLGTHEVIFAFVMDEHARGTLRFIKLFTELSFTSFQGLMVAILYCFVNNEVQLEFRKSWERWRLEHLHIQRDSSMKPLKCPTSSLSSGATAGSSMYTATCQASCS
# Assay: qHTS of GLP-1 Receptor Inverse Agonists (Inhibition Mode); note: nearly all actives have a fitted effect of over 55% in size
# Conditions: HEK293 GLP-1R CRE-luciferase, luminescence, 24 h, GLP-1R form is constitutively active; series mostly up to 38.3 µM
# Summary of the method: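 Inverse agonists were sought by their lowering of basal cAMP reporter luciferase output in HEK293 cells stably carrying constitutively active human GLP-1R, after 24 h compound treatment.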
# Potency is the fitted concentration of half-maximal effect; tags give direction and shape of the fitted curve.
row,Structure (SMILES),Potency
1,CC1CCN(C(=O)c2ccc3c(c2)NC(=O)/C(=C/c2ccccc2)S3)CC1,"inconclusive [inhibitor, single point]"
2,CC(NCc1ccc([N+](=O)[O-])cc1)C1COc2ccccc2O1 (stereo not drawn),"inconclusive [inhibitor, partial curve]"
3,CCOc1ccccc1CNS(=O)(=O)c1ccc2c(c1)CCCN2C(C)=O,inactive
4,O=C(c1ccccc1)n1ccc(-c2cnc(-c3ccccc3)s2)n1,inactive
5,CCc1ccc(CNC(=O)c2sc3ncccc3c2-n2c(C)ccc2C)cc1,"inconclusive [inhibitor, partial curve, poor fit]"
6,Cc1ccc(OCC(=O)Nc2ccc(S(=O)(=O)Nc3cc(C)nc(C)n3)cc2)c(Br)c1,inactive
7,COc1ccc(N2CCN(CC(O)COC(c3ccc(F)cc3)c3ccc(F)cc3)CC2)cc1 (stereo not drawn),"inconclusive [inhibitor, partial curve, poor fit]"
8,Cc1ccccc1-n1c(SCC(=O)Nc2ccc(Cl)cc2F)nnc1-c1cc2occc2n1C,inactive
9,COc1ccc(CCN2C(=O)C(Oc3ccccc3C)C2c2ccc3c(c2)OCO3)cc1OC (stereo not drawn),"inconclusive [inhibitor, single point]"
10,CCc1ccc(OCC(=O)N2c3ccccc3CCc3ccccc32)cc1,"inconclusive [inhibitor, single point]"
11,O=c1oc(CCCO)cc2ccc(C#Cc3ccsc3)cc12,inactive
12,COc1ccc(C)cc1NC(=O)c1nn(C)cc1Br,"inconclusive [inhibitor, single point]"
13,CSc1cccc(NC(=O)CN(C)S(=O)(=O)c2ccc(F)cc2)c1,"inconclusive [inhibitor, partial curve]"
14,CCOC(=O)C1CCN(c2ncnc3c2c(-c2ccccc2)cn3-c2cccc(C)c2)CC1,"inconclusive [inhibitor, partial curve]"
15,Cc1ccc(S(=O)(=O)N2CCOCC2)cc1C(=O)Nc1cccc(S(=O)(=O)N2CCCC2)c1,"inconclusive [inhibitor, single point]"
16,Cc1oc2c(c(C)cc3oc(=O)c(CC(=O)NCCc4ccccc4F)c(C)c32)c1C,inactive
17,CCN(CC)C(CNC(=O)CSc1nnnn1-c1ccc(C)c(C)c1)c1ccco1 (stereo not drawn),"inconclusive [inhibitor, single point]"
18,Cc1sc2ncn(CC(=O)NC3CCCCC3)c(=O)c2c1C,inactive
19,Cc1ccc(S(=O)(=O)c2c(N)n(NC(=O)c3ccccc3C)c3nc4ccccc4nc23)cc1,"inconclusive [inhibitor, single point]"
20,Cc1ccc(Cn2c(C(=O)O)c(CNCc3ccccc3Cl)c3ccc(C)cc32)cc1,inactive
21,COc1cc(/C=N/NC(=O)c2csc3c2CCCC3)cc(OC)c1O,"inconclusive [inhibitor, single point]"

row,Structure (SMILES),Potency
1,COc1ccc(CCNS(=O)(=O)c2ccc(Br)s2)cc1,"inconclusive [inhibitor, partial curve, poor fit]"
2,COCCNC(=O)/C(C#N)=C/c1cc(C)n(-c2ccc(C)cc2)c1C,"inconclusive [inhibitor, single point]"
3,CCN(c1ccccc1)S(=O)(=O)c1ccc(C(=O)Nc2nnc(-c3ccco3)o2)cc1,"inconclusive [inhibitor, single point]"
4,Cc1ccccc1NC(=O)c1ccc(F)c(S(=O)(=O)N(C)Cc2ccccc2)c1,"inconclusive [inhibitor, single point]"
5,O=C1CN(C(=O)c2ccccc2)C(c2ccccc2)c2cc(Cl)ccc2N1 (stereo not drawn),"inconclusive [inhibitor, single point]"
6,O=C(Nc1cnn(Cc2ccc(Cl)c(Cl)c2)c1)C12CC3CC(CC(C3)C1)C2,"inconclusive [inhibitor, full curve, poor fit]"
7,CC1CC(C)CN(C(=O)c2cc3cc(Br)cc(Br)c3o2)C1 (stereo not drawn),"inconclusive [inhibitor, single point]"
8,COc1ccc(/C=C/CN2CCC(C(=O)NC(c3ccc(F)cc3)c3ccc4ccccc4n3)CC2)cc1 (stereo not drawn),"inconclusive [inhibitor, single point]"
9,O=C1NC2(CCCCC2)C(=O)N1CCS(=O)(=O)Oc1ccc(Br)cc1,"inconclusive [inhibitor, single point]"
10,C=CCSc1nsc(NC(=O)Nc2cccc(C(C)=O)c2)n1,"inconclusive [inhibitor, partial curve, poor fit]"
11,CCCCN1C(=O)c2[nH]nc(-c3ccccc3O)c2C1c1cccc(OCc2ccccc2)c1 (stereo not drawn),"inconclusive [inhibitor, single point]"
12,CC(CCc1ccccc1)N(C)CC(O)c1cccc([N+](=O)[O-])c1 (stereo not drawn),"inconclusive [inhibitor, single point]"
13,CCN(c1ccccc1)S(=O)(=O)c1ccc(OC)c(NC(=O)c2cc(F)c(F)c(F)c2F)c1,inactive
14,Cc1ccc(S(=O)(=O)NCCC(=O)N2CCCC(C)C2)cc1 (stereo not drawn),"inconclusive [inhibitor, partial curve, poor fit]"
15,CCc1nn(-c2ccccc2)c2nc(-c3ccccc3OC)c3cc(OC)c(OC)cc3c12,"inconclusive [inhibitor, full curve, poor fit]"
16,COc1ccc(NC(=S)N2CCN(c3ccc4c(c3)C3CCN(C(=O)OCc5ccccc5)C4C3)CC2)c(OC)c1 (stereo not drawn),"inconclusive [inhibitor, full curve, poor fit]"
17,CCOC(=O)c1scc(-c2ccccc2)c1S(=O)(=O)Nc1ccccc1F,"inconclusive [inhibitor, partial curve, poor fit]"
18,CCc1ccc(NC(=O)c2cc(C(C)=O)n3ccccc23)cc1,"inconclusive [inhibitor, single point]"
19,CN(CCc1ccccn1)Cc1ccc(Cl)c(Cl)c1,"inconclusive [inhibitor, single point]"
20,COCCN1C(=O)N(c2cccc(OC)c2)C(=O)C1CC(=O)Nc1cccc(F)c1 (stereo not drawn),inactive
21,O=C(NNC(=O)c1ncc(Cl)c(Cl)c1Cl)c1ccc(F)cc1,"inconclusive [inhibitor, single point]"

row,Structure (SMILES),Potency
1,COc1ccc(S(=O)(=O)NC(C)C)cc1C(=O)N1CCOCC1,inactive
2,COc1ccc(N2CCN(Cc3nc(N)nc(Nc4ccccc4OC)n3)CC2)cc1,"inconclusive [inhibitor, partial curve, poor fit]"
3,CCOC(=O)C(Cc1nc(OCc2ccccc2)cc(OCc2ccccc2)n1)=NO,"inconclusive [inhibitor, partial curve, poor fit]"
4,COc1cccc(NC(=O)NCc2ccc3c(c2)CCN3C(=O)c2ccccc2)c1,inactive
5,CCCCCOc1ccc(CN2CCOCC2)cc1Cl,"inconclusive [inhibitor, partial curve, poor fit]"
6,COc1ccc(CNCC(O)(c2ccccc2)c2ccccc2)cc1,"inconclusive [inhibitor, single point]"
7,CCN(CC)S(=O)(=O)c1ccc2c(c1)N(CC(=O)NCCCN1CCN(c3ccccc3F)CC1)C(=O)CO2,"inconclusive [inhibitor, single point]"
8,C=CCN(c1ccccc1)S(=O)(=O)c1cccc(C(=O)NCC2CCCO2)c1 (stereo not drawn),inactive
9,COC(=O)c1sccc1S(=O)(=O)N1CCN(c2ccccc2)CC1,inactive
10,Oc1cc2c(cc1CN1CCN(c3cccc(C(F)(F)F)c3)CC1)CCC2,"inconclusive [inhibitor, partial curve, poor fit]"
11,COc1ccccc1C1C=C(c2ccc(F)cc2)Nc2nc(-c3ccc(Cl)cc3)nn21 (stereo not drawn),"inconclusive [inhibitor, partial curve, poor fit]"
12,CC(=NN(Cc1ccccc1)c1ccccc1)c1ccccc1,"inconclusive [inhibitor, single point]"
13,NCCN1C(=O)c2ccccc2C1(O)c1ccc(Cl)cc1 (stereo not drawn),"inconclusive [inhibitor, partial curve, poor fit]"
14,COc1ccccc1CCNC(=O)c1ccc(OC)c(OC2CCN(C(C)C)CC2)c1,"inconclusive [inhibitor, single point]"
15,Cc1ccc(C(=O)Nc2ccc(Nc3ccccc3)cc2)cc1C,"inconclusive [inhibitor, partial curve, poor fit]"
16,Cc1ccc(NC(=O)CC2C(=O)N(Cc3ccccc3)C(=S)N2NC(=O)c2ccccc2)c(C)c1 (stereo not drawn),"inconclusive [inhibitor, partial curve, poor fit]"
17,O=C(CSc1nc(-c2ccco2)cc(C(F)(F)F)n1)N1CCc2ccccc2C1,"inconclusive [inhibitor, partial curve, poor fit]"
18,Cc1cccc(-c2noc(CN(C(=O)COc3ccc(C(C)C)cc3)C(C)C)n2)c1,"inconclusive [inhibitor, single point]"
19,O=[N+]([O-])c1ccc(-c2nc(-c3ccncc3)no2)cc1,inactive
20,Cc1cccc(N2C(=O)CSC23C(=O)N(Cc2cccc(F)c2)c2ccccc23)c1 (stereo not drawn),"inconclusive [inhibitor, single point]"
21,Cc1nc(C)c(-c2csc(Nc3ccc(F)cc3)n2)s1,"inconclusive [inhibitor, single point]"
